Among the data in paper PMC12136788 are binding signal values, retold here.

The labels stand for the following.
B1: 93572924_93576970_823_CDS_ENSG00000107854_ENST00000371627|human|control|control (ssRNA)
RNA: GGGAGUUCUACAGUCCGACGAUCGGCAGAUGGAUCUGCUAAAUCCAAUGCUGUCCUUCCAUCUGUAUUUCGGAUGGUUGGCUCAGCUCCAUGCUGUAACAGCACAAUGCAAACAUCAAUCUUUCCUUUAAUUGCAGCUUCAUGCAACAGAGGAUUGAGCAUCA
B2: chr4:76721835:76721836:+_ENSG00000138768_ENST00000264904|hu_mus|hu_hu_hu_mus_True|18_18 (ssRNA)
RNA: GGGAGUUCUACAGUCCGACGAUCGUUUGGCUGGGGUUUCUGAGACGCUCUGGAAUAUAACUCAUGUUUGCUAAUAAAUCCUAGUUUCUCUAUGAAAUUCUCUUUGCCAAUCCUCUUUCAAUCAGUUUGCUUUAGUUUCUCUUUCAACAGAGGAUUGAGCAUCA
B3: chr13:43497316:43497317:+_ENSMUSG00000063200_ENSMUST00000071926|mus_hu|FALSE|FALSE (ssRNA)
RNA: GGGAGUUCUACAGUCCGACGAUCCUUCCUCAAAUAGGUUUAUGAUUUUUAUAAUGAUCCUUUAAAAUGAUCUAUGAAUGAUUUAUUAGAUAAAUUCUAUACAUACAAAGUACAGAUUCUUCAUUUAGCAUUGAUUUACUUCUUCAACAGAGGAUUGAGCAUCA
B4: chr12:39756943:39756944:-_ENSG00000139116_ENST00000544797|hu_mus|hu_hu_hu_mus_False|8_8 (ssRNA)
RNA: GGGAGUUCUACAGUCCGACGAUCGGUUUGGCUGUUACCCCCAAGGGAAUCCUGCAAGAGUCUUGUCAGCUUAGAGUCUCUGUAAGGGACAUGGGUGGCUCUCUUGCUCUUGUCCCCCAAGGCGCUGAUUACAUUGCCAAGAGCCAACAGAGGAUUGAGCAUCA
B5: chr12:39752152:39752153:-_ENSG00000139116_ENST00000544797|hu_hu|FALSE|FALSE (ssRNA)
RNA: GGGAGUUCUACAGUCCGACGAUCGUAUUUCAGGGUGUUUAACGUUUCCAUAAAGUCUCUGUCUGAAGGGCUGACACAUGCUAUCAUGAUUGUUUGGCUAUUACCCCCGAGGGAAUCCUGUAGUAGUCUUGUUAGCUUGGAAUCCAACAGAGGAUUGAGCAUCA
B6: chr1:6260860:6260861:+_ENSMUSG00000025907_ENSMUST00000027040|perfect_dup|FALSE|FALSE (ssRNA)
RNA: GGGAGUUCUACAGUCCGACGAUCUGGUUUGAGAUCCAGGGCAGGUAGAGACUCUGAAUGUAGAAAAUAUAAAGUAGGACUAACAGUAAAUAACACAUAAUUGUCAUGGCGUUCGUCUAGGAUGAUGAGUACCAAAUCUCCCACCAACAGAGGAUUGAGCAUCA
B7: chr7:141450121:141450122:+_ENSG00000106028_ENST00000265304|hu_mus|hu_hu_hu_mus_True|68_88 (ssRNA)
RNA: GGGAGUUCUACAGUCCGACGAUCUCAUCCGUUCUAUGCCUUUUCUUUCGUCUGGUCACUCAGAAAUAUAAUAUUAUCAGCUAUGAUUGUUGUUGCUUGCCGCCUCACAUUGUUUUUAUCCAUGUACUCGCCAUAGUCCACUUUCAACAGAGGAUUGAGCAUCA
B8: chr10:33190432:33190433:-_ENSG00000150093_ENST00000302278|hu_mus|hu_hu_hu_mus_True|28_48 (ssRNA)
RNA: GGGAGUUCUACAGUCCGACGAUCUACAUUUUCCAAACCUGCAUGUGAAUAAAACCCUGGCCACAGAGCCCCAAAACUACCCUACUGUGACUAUGGAGCUGCUGCUGUUGCAUUCAGGUUGCAAAAUCCGCCUGAGUAGGAUUCCAACAGAGGAUUGAGCAUCA
B9: chrX:98480239:98480240:+_ENSMUSG00000079487_ENSMUST00000087948|mus_hu|FALSE|FALSE (ssRNA)
RNA: GGGAGUUCUACAGUCCGACGAUCAGCACAGCGAAUCAGAUCUUCCAGGAGCAAACACUGCCGAGCGAUGAGGAUGGCAACAAAAGUAGCCAGCGAGUCAUGAAAAGAUAGGUCACUGACAUCAACAUUGCAGAGGAGAUCGUUCAACAGAGGAUUGAGCAUCA
B10: chr5:33369694:33369695:+_ENSMUSG00000018965_ENSMUST00000019109|mus_mus|motif|central (ssRNA)
RNA: GGGAGUUCUACAGUCCGACGAUCGGAAUCCUCGUUUAAUGUGUCCAGCUCAGCUAUAGCAUCAUCGAAGGCUUGUUUGGCGGAGAGGCAGGCUUGCUCUGGUGCAUUCUGGAUCUCAUAGUAGAACACAGAAAAAUUGAGGGCCAACAGAGGAUUGAGCAUCA
B11: 108272540_108273305_2378_CDS_ENSG00000163507_ENST00000295746|human|control|control (ssRNA)
RNA: GGGAGUUCUACAGUCCGACGAUCUCUCUGUUCUUCUUUCUCUAUUAAUUGGGCAAUACUUUUUUCAUUUUGUUCCUUGAGUGACUCAUUCAACUUUUUCACUGUCUCAAUUUGUUUAUUCAGAGAAUCACAUGUGAUCUGUAACAACAGAGGAUUGAGCAUCA
B12: 64770575_64770695_352_CDS_ENSMUSG00000059920_ENSMUST00000076991|mouse|control|control (ssRNA)
RNA: GGGAGUUCUACAGUCCGACGAUCAGGCUGCACCAGGCGGUUGGUGACGGUGUCGCAAAGGGCCAUGAUCUCGUCGUUGUCCAGCAGGCCGAGUAGGUUUCGGCAGCCCUCCGACUCUAAGUGGCUGAGCCCCGACAUCUCGCCCAACAGAGGAUUGAGCAUCA
B13: chr10:17279241:17279242:+_ENSG00000026025_ENST00000224237|hu_mus|FALSE|FALSE (ssRNA)
RNA: GGGAGUUCUACAGUCCGACGAUCUUUUUAUUCAAGGUCAUCGUGAUGCUGAGAAGUCUCAUUGAUCACCUGUCCAUCUCUGGUCUCAACCGUCUUAAUCAGGAGUGUUCUUUUUGAGUGGGUGUCAACCAGAGGAAGUGACUCCAACAGAGGAUUGAGCAUCA
B14: chrX:53230792:53230793:-_ENSG00000126012_ENST00000404049|hu_mus|FALSE|FALSE (ssRNA)
RNA: GGGAGUUCUACAGUCCGACGAUCCAACAGAGCCUUUCGUAGACGCCGCUCCUCUUGCACCAUAAUGAACAUCUCCUUAUGUACAGCUGCUGCCAGGUUCAGGUCCAGUUUCUCAGGGCAGGCAGCCAUCUUGCAAAUGAGCUCCAACAGAGGAUUGAGCAUCA
B15: chr11:10818680:10818681:-_ENSG00000110321_ENST00000525681|hu_mus|FALSE|FALSE (ssRNA)
RNA: GGGAGUUCUACAGUCCGACGAUCUAUAUAAAAUCAGGGCAUGAACAUGACUUGAUAAAUUAAGUAGACUUAAUUUCAAUACUAUAAUAAGAGGGACCAAUUCAAAUUCUCACCAUUUGUUUCACACCCACAAAAACCACUUCACAACAGAGGAUUGAGCAUCA
B16: chr8:74858975:74858976:-_ENSG00000154582_ENST00000284811|hu_mus|hu_hu_hu_mus_True|68_88 (ssRNA)
RNA: GGGAGUUCUACAGUCCGACGAUCGACCUUGUAGGUAAAAUACAUGCAUACUUUCGAUAGCACAUGUGAAGGUAUCUCUCUAAAAUUGACCUCGUUGGUUUCAUUCUCAGCAAACUGACCUGGACCACUCAACAUAGCCUUUAUCAACAGAGGAUUGAGCAUCA
B17: chr8:104447970:104447971:+_ENSG00000164934_ENST00000297579|hu_hu|hu_hu_hu_mus_False|8_48 (ssRNA)
RNA: GGGAGUUCUACAGUCCGACGAUCAUACACUUCCCUGCUUCGGCUCUUGUCCACAGGAAAGAUUCUAAUAGACUUAUCAAAGCUGGCAGACACAAACUCCUUCCCAGUGGGAGAGUAGUCCACAUCAAGCACUGCAGACACGUGCAACAGAGGAUUGAGCAUCA
B18: chr8:77776764:77776765:+_ENSG00000091656_ENST00000521891|hu_hu|motif|central (ssRNA)
RNA: GGGAGUUCUACAGUCCGACGAUCUUUAAGCACGGGAUCCUGUCUUCACUCCUACACACUGAACAUAUCCAUUCGGAUGCGGUUGAAAUUACCAUCUAGGCCAGAAGCAGGCUUAGCCUUCACUUCCAAAGAAUUAUCUAAGUCCAACAGAGGAUUGAGCAUCA
B19: 46808375_46808495_1150_3pUTR_ENSG00000119729_ENST00000238738|human|control|control (ssRNA)
RNA: GGGAGUUCUACAGUCCGACGAUCAUUGUAGCUUUUUAAACUAUGAAACCCCUGAGAGAUUGUACCUUCUAGUUGAAAUAAAGUAUUUAUAAUAGAUUGUGGCUUCAGAUGCUGCUUACUGCUUCUUAAACCUUUAAGGAACAUCAACAGAGGAUUGAGCAUCA
B20: chr2:47388980:47388981:-_ENSG00000143933_ENST00000272298|hu_mus|hu_hu_hu_mus_True|68_68 (ssRNA)
RNA: GGGAGUUCUACAGUCCGACGAUCUUCAUCUGUUAACUUCUCGCCAAGGUUUGUCAUCACAUGGCGAAGUUCUGCAGCACUAAUAUAGCCAUUGCCAUCCUUAUCAAACACACGGAAUGCUUCUCUAAUCUCUUCUUCACUGUCCAACAGAGGAUUGAGCAUCA
B21: chr1:163112212:163112213:-_ENSG00000143248_ENST00000313961|hu_hu|hu_hu_hu_mus_False|1_28 (ssRNA)
RNA: GGGAGUUCUACAGUCCGACGAUCUUUUAUUAUCAGUAAGAGUGAGUUACAUACUAGGCAAAGUAUUGGAUACAAUAAUCAGGAAACAAACACUAUUGGUCCAGAAUUUAAAAUAUAAUGAGCGAAGUGCUGGCACAGGAUUUACAACAGAGGAUUGAGCAUCA
B22: 98547442_98547784_4317_CDS_ENSG00000196367_ENST00000456197|human|control|control (ssRNA)
RNA: GGGAGUUCUACAGUCCGACGAUCCCUCCAUAUACUCUUUUAAGAAUGUCAUGUUGCAGAGAAAACGACCAGUAAAGGCUCGGAGCAGCUGGAACAGCAAUUCUAUAUCUCCGUAAUUCCUUUUGCAGUAGUUCAGCAGGCAGUCAACAGAGGAUUGAGCAUCA

The other results are listed elsewhere or left out.

The target in the experiment is T1, UNK ZnF1-3 (human, UniProt Q9C0B0 31-174).
T1 sequence: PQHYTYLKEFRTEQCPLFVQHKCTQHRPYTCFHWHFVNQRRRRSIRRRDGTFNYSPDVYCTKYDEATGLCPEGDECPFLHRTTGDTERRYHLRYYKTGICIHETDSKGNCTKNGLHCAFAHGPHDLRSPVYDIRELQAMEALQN
Put plainly: nsRBNS (natural sequence RNA bind-n-seq); RBNS binding buffer (assumed for nsRBNS): 25 mM Tris pH 7.5, 150 mM KCl, 3 mM MgCl2, 0.01% Triton X-100, 500 ug/ml BSA, 20 U/ml SUPERase-In, 4 C; UNK is unkempt and MSI1 is Musashi-1; names of the RNAs are library labels; protein concentration not given here; high values mean tight binding.
Molecule B1 had a binding signal of 0.57 enrichment R.
For B2 the value was 0.469 enrichment R; for B3, 1.88 enrichment R; for B4, 0.576 enrichment R.
For B5 the value was 0.672 enrichment R.
For B6 the value was 2.18 enrichment R; for B7, 0.541 enrichment R; for B8, 0.9 enrichment R.
Turning to B9, the binding signal was 1.52 enrichment R.
In turn, B10 came in with a binding signal of 1.31 enrichment R.
The molecule B11 registered a binding signal of 0.34 enrichment R.
For B12 the value was 0.865 enrichment R.
For B13 the value was 0.521 enrichment R; for B14, 1.07 enrichment R.
For B15 the value was 2.06 enrichment R.
Take B16: the binding signal turned out to be 0.85 enrichment R.
For B17 the value was 1.09 enrichment R; for B18, 0.769 enrichment R.
For B19 the value was 1.24 enrichment R; for B20, 0.838 enrichment R; for B21, 1.82 enrichment R.
For B22 the value was 1.23 enrichment R.
